Out of some 43,000 compounds screened, about 200 (0.47%) were called active. Another 12% or so got no clear call; they are omitted. Calls follow the shape of the dose curve; as a rule, active = well fitted cell-killing curve with a large enough effect; inconclusive = small, poorly fitted or top-dose-only effect, or effect the other way; inactive = flat fitted curve, though single readings scatter. This is one part of the list.
% is scaled to controls: 0 for no effect and ±100 for the full control effect.

The assay can be described thus: Cell viability qHTS assay in S16 Pmp22-F2sN cells. Also: nearly all actives have a fitted effect of over 65% in size. The note with it: S16 Pmp22-F2sN Schwann cells viability, CellTiter-Glo, 24 h; series mostly up to 57.5 µM; activity change, negative = cytotoxicity: at the top concentration. The method, boiled down: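 S16 Pmp22-F2sN Schwann cells (500-1,000/well) in phenol-red-free DMEM with 10% FBS received 23 nL compound by pin tool for 24 h at 37 °C. Viability was then read as CellTiter-Glo luminescence after 15 min at room temperature.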
With `COc1ccc(S(=O)(=O)NCCc2csc(-c3ccc(F)cc3)n2)cc1`, the “activity change, negative = cytotoxicity” value is inactive: 2.23%.
For `Cc1cc(C)cc(OCC(=O)Nc2ccc(S(=O)(=O)Nc3onc(C)c3C)cc2)c1`, the “activity change, negative = cytotoxicity” value was inactive: 6.76%.
Under `CCOc1ccc(-c2nc(SCC(=O)NCCOC)c(-c3ccc(OC)c(OC)c3)[nH]2)cc1` stands inactive: 1.22%; under `CCc1ccc(-n2nc(C)c3c(C(=O)Nc4cc(OC)cc(OC)c4)cc(C)nc32)cc1`, inactive: -7.52%; under `CSc1nc2sc3c(c2c(=O)n1-c1ccc(F)c(Cl)c1)CCN(C(C)=O)C3`, inactive: 12.7%.
Regarding `Cc1cc(C)cc(NC(=O)CSc2nc(-c3cccc(Cl)c3)nc3c2Cc2c(CO)cnc(C)c2O3)c1`, the “activity change, negative = cytotoxicity” value is inactive: -15.9%.
The figure for `COc1ccc(CNC(=O)Cn2c(SCC(=O)Nc3ccc(C)c(C)c3)nc3ccccc32)cc1` is inactive: -29.1%; for `Cc1nn(CC(=O)NCc2ccccc2Cl)c(=O)c2nn(-c3ccccc3)c(C)c12` it is inactive: -5.47%.
Turning to `Cc1ccccc1NC(=O)CSC1=Nc2ccccc2C2=NC(CCC(=O)NCc3ccccc3)C(=O)N12` (stereo unspecified), the “activity change, negative = cytotoxicity” value was inactive: -7%.
Under `Cc1nc(CC(=O)Nc2ccc(N(C)C)cc2)cs1` stands inactive: 5.61%.
Consider `COc1ccc(-n2nc(C(=O)Nc3cccc(C(F)(F)F)c3)c3c4ccccc4n(C)c3c2=O)cc1`, for which the “activity change, negative = cytotoxicity” value is inactive: 7.94%.
The figure for `O=C(NCc1cccc(Cl)c1)C1CCN(C(=O)c2sccc2-n2cccc2)CC1` is inactive: -6.29%; for `CCc1ccc(C(=O)c2cn(CC(=O)Nc3ccc(OC)cc3OC)c3ccc(CC)cc3c2=O)cc1` it is inactive: -0.7%.
For `CC(=O)N1CCC(N(C(=O)Nc2c(F)cccc2F)C(C)C)CC1`, the “activity change, negative = cytotoxicity” value is inactive: -9.48%.
`Cc1ccc(N(C)C(=O)c2cnc(N3CCOCC3)c3ccccc23)cc1C`: the “activity change, negative = cytotoxicity” value was inactive: -1.65%.
For the compound `COc1cccc(C(=O)Nc2cccc(C(=O)OCc3cc(=O)n4nc(C(C)C)sc4n3)c2)c1`, the “activity change, negative = cytotoxicity” value is inactive: 0.289%.
Consider `CC(NC(=O)CCSCc1ccccc1F)c1ccccc1` (stereo unspecified), for which the “activity change, negative = cytotoxicity” value was inactive: -4.03%.
As to `O=C(c1ccc2c(c1)N(Cc1ccccc1F)C(=O)c1ccccc1S2(=O)=O)N1CCCC1`, the “activity change, negative = cytotoxicity” value is inactive: 19%.
As for `COc1ccc(-c2cc(-c3ccccc3)nc(SCC(=O)CC(=O)OC(C)C)c2C#N)cc1`, the “activity change, negative = cytotoxicity” value was inactive: -24.7%.
Turning to `COCCCNC(=O)c1c(NC(=O)Cc2coc3cc(C)cc(C)c23)sc2c1CCCC2`, the “activity change, negative = cytotoxicity” value is inactive: -24.1%.
As for `CCc1ccc(CNC(=O)CSc2cc(=O)n(C)c3ccc(Cl)cc23)cc1`, the “activity change, negative = cytotoxicity” value was inactive: 18.1%.
In the case of `CCN(CCCNC(=O)c1cc2c(=O)n(CC)c3ccccc3c2s1)c1ccccc1`, the “activity change, negative = cytotoxicity” value is inactive: 12%.
Take `Cc1ccc(-c2noc(-c3nnn(CC(=O)Nc4cc(C)cc(C)c4)c3N)n2)cc1`: the “activity change, negative = cytotoxicity” value is inactive: 2.66%.
Turning to `CCCNC(=O)CSc1nc2nc(C)c(Cc3ccccc3Cl)c(C)n2n1`, the “activity change, negative = cytotoxicity” value is inactive: 5.52%.
The figure for `COc1ccc(CCCc2nnc(SCC(=O)Nc3ccc(C)cc3C)o2)cc1` is inactive: 28.9%; for `CCN(CC)S(=O)(=O)c1cc(-c2onc(C)c2C)ccc1OC` it is inactive: 0.751%.
On to `COc1ccc(C(=O)N(Cc2cc(OC)c(OC)c(OC)c2)CC2CCCO2)cc1` (stereo unspecified), for which the “activity change, negative = cytotoxicity” value was inactive: 3.24%.
The figure for `Cc1cc(F)ccc1NCc1ccccc1-c1nnc(-c2ccccc2Cl)o1` is inactive: 0.801%; for `O=C(NCC(c1cccnc1)N1CCc2ccccc21)c1cccc(C(F)(F)F)c1` (stereo unspecified) it is inactive: -25.4%; for `COc1ccc(N2CCN(C(=O)c3nc(SC)ncc3Cl)CC2)cc1` it is inactive: 4.43%.
Under `CC(NC(=O)CCCn1c(=O)c2cccn2c2cccnc21)c1ccccc1` (stereo unspecified) stands inactive: 0.777%; under `Cc1coc2c(C)c3oc(=O)c(CCC(=O)NCCc4ccc(Cl)cc4)c(C)c3cc12`, inactive: -4.63%; under `CC1=C(c2ccc(C)c(C)c2)S(=O)(=O)N=C1N1CCC(C(=O)NCc2ccc(C)o2)CC1`, inactive: 19.5%.
Consider `Cc1ccccc1OCCn1c(CCNC(=O)C(C)(C)C)nc2ccccc21`, for which the “activity change, negative = cytotoxicity” value was inactive: -5.96%.
Turning to `COc1ccc(C(C)C)cc1S(=O)(=O)NCCc1c(C)[nH]c2ccc(C)cc12`, the “activity change, negative = cytotoxicity” value is inactive: -29.4%.
The figure for `CCN(C(=O)CSc1nc2ccccc2n1Cc1cc(C)ccc1C)c1ccccc1` is inactive: 0.261%.
`Cc1c2cnn(CC(=O)NC(C)C)c(=O)c2c(C)n1Cc1ccccc1Cl`: the “activity change, negative = cytotoxicity” value was inactive: -2.84%.
Regarding `Cc1c2cnn(CC(=O)Nc3cccc(C(F)(F)F)c3)c(=O)c2c(C)n1Cc1ccccc1Cl`, the “activity change, negative = cytotoxicity” value is inactive: 0.299%.
The figure for `CCOC(=O)N1CCc2c(sc3c2c(=O)n(-c2ccc(CC)cc2)c(=O)n3CC(=O)c2ccc(F)cc2)C1` is inactive: -3.25%; for `COc1ccccc1/C=C/c1nc(C#N)c(N(C)C)o1` it is inactive: 10.3%.
Under `COc1cc(C(=O)Nc2ccc3nc(SCc4ccccc4)sc3c2)cc(OC)c1OC` stands inactive: 15.8%.
Consider `COc1ccc(N2CCN(C(=O)c3ccc(-c4nc(COc5ccccc5)c(C)o4)cc3)CC2)cc1`, for which the “activity change, negative = cytotoxicity” value was inactive: 14.1%.
Consider `CCCNC(=O)C1CCC(Cn2c(=O)c3sccc3n(CC(=O)N3CCC(C)CC3)c2=O)CC1` (stereo unspecified), for which the “activity change, negative = cytotoxicity” value was inactive: -0.0919%.
The figure for `Cc1cccc(OCC(=O)N(Cc2sccc2C)C2CCS(=O)(=O)C2)c1` (stereo unspecified) is inactive: 5.56%; for `O=C(Cn1nc(-c2ccc(Cl)cc2)ccc1=O)NCc1ccccc1Cl` it is inactive: 2.76%; for `CCOc1ccc(OCC)c(NC(=O)CN(C)S(=O)(=O)c2ccc3c(c2)CCCC(=O)N3)c1` it is inactive: -3.7%.
Under `COc1cccc(N2CCN(C3C(=O)c4ccccc4N3C(C)=O)CC2)c1` (stereo unspecified) stands inactive: 2.27%; under `COc1cccc(C2C(C(=O)Nc3ccc(C)cc3C)=C(C)Nc3c(C(=O)Nc4cccc(C)c4)cnn32)c1OC` (stereo unspecified), inactive: -14.9%.
The figure for `CCOC(=O)c1cnc2c(C)cc(C)cc2c1NCCN1CCOCC1` is inactive: -20%; for `O=C(Nc1ccccc1OCc1cc(=O)n2ccccc2n1)Nc1ccccc1C(F)(F)F` it is inactive: -0.478%; for `Cc1nc2nc(NCc3ccccc3Cl)[nH]n2c(=O)c1Cc1ccccc1` it is inactive: -12%.
In the case of `Cc1ccc(C)c(OCc2nc3ccccc3n2C)c1`, the “activity change, negative = cytotoxicity” value was inactive: 2.07%.
In the case of `Cc1ccccc1NC(=O)CSc1nc2c(oc3ccccc32)c(=O)n1Cc1ccco1`, the “activity change, negative = cytotoxicity” value is inactive: -2.1%.
In the case of `CCCSC1=NC2(CCN(C(=O)NC3CCCCC3)CC2)N=C1c1ccc(C)cc1`, the “activity change, negative = cytotoxicity” value was inactive: -4.17%.
For the compound `COc1ccc(OC)c(CCNC(=O)c2ccc3c(c2)N(Cc2ccccc2)CCS3)c1`, the “activity change, negative = cytotoxicity” value is inactive: 3.63%.
Under `COC(=O)c1sccc1S(=O)(=O)N1CCN(c2cccc(C)c2)C(C)C1` (stereo unspecified) stands inactive: 19.9%.
The figure for `Cc1cccc(N(C)S(=O)(=O)c2nnc(NC(=O)C(C)Oc3ccccc3)s2)c1` (stereo unspecified) is inactive: -17.7%.
For `O=C(NCc1ccc(Cl)cc1)c1ccc2c(c1)nnn2C1CCCC1`, the “activity change, negative = cytotoxicity” value is inactive: -0.642%.
The figure for `COc1ccc(C)cc1NC(=O)CSc1nc(=O)n(Cc2ccco2)c2c1CCC2` is inactive: 21%.
The figure for `Cc1ccc(-n2cc(-c3ccccc3)c3c(N4CCC(C)CC4)ncnc32)cc1Cl` is inactive: -0.707%; for `O=C(NCc1ccccc1)C1CCN(c2ncnc3c2nc2n3CCCCC2)CC1` it is inactive: 2.43%.
